This note sets out measurements from PMC5038302 (Antimicrobial Agents and Chemotherapy, 2016).

A number of entries come with more than one value. This list holds those alone. An entry can have further records. Values that stand side by side read as repeated measurements (runs, samples, wells or individuals). Records carry a tag for their origin. A, B and so on number the origins entry by entry.

The assay relates to SPM-1. It is filed as biochemical. The settings on record: 80 μM di-Zn(II)-SPM-1, 4 mM avibactam, Tris-D11 50 mM pH 7.5, 24 h. The protocol:
Typical experimental parameters for Carr-Purcell-Meiboom-Gill (CPMG) NMR spectroscopy were the following: total echo time, 40 ms; relaxation delay, 2 s; and number of transients, 264 ([31]). The PROJECT-CPMG sequence (90°x-[τ-180°y-τ-90°y-τ-180°y-τ]n-acq) was applied. Water suppression was achieved by presaturation. Prior to Fourier transformation, the data were multiplied with an exponential function with 3-Hz line broadening.

`NC(=O)[C@@H]1CC[C@@H]2CN1C(=O)N2OS(=O)(=O)O` [avibactam]: the “Avibactam hydrolysis observed by NMR” value was “slow [passage A] and hydrolysis is catalyzed slowly [passage B]”.
